Experiments:
CEACAM5/6 (H2122 cells) = assay: Binding of antibody or ADC to H2122 cells (CEACAM5/6+) by flow cytometry; conditions: cell binding, MFI by flow cytometry
Experimental: First of all, HCC1954 cells (HER2 positive, Cat. No. CRL-2338) (purchased from the cell bank of American Type Culture Collection, ATCC) were normally cultured in an RPMI-1640 medium (Gibco, Cat. No. A1049101) with 10% fetal bovine serum (FBS) (Gibco, Cat. No. A5669701) in a cell culture incubator at 37° C. and 5% CO2. […] The dissociated cells were collected, and centrifuged. The cells were resuspended in a staining buffer (PBS (Gibco, Cat. No. C20012500BT)+2% FBS) at 4° C., and were added to a V-bottom 96-well plate (BD Falcon) at 1.0×10^5 cells/well and 50 μL/well. […] The plate was incubated at 4° C. for 1.0 hour. After the centrifugation at 300 g for 5 minutes, the supernatant was aspirated, and the pellet was resuspended in 200 μL/well of staining buffer and washed twice. The PE-labeled anti-human IgG Fc antibody (Biolegend, 410708) diluted in a staining buffer was added at 100 μL/well and incubated in the dark at 4° C. for 45 minutes. […]
Fluorescence signals were detected on a BD FACSCanto™ II flow cytometer (BD Biosciences) to obtain the mean fluorescence intensity (MFI) of the binding of the antibody or antibody-drug conjugate to cells, and the half maximal effective concentration (EC50) values were then obtained using the Log (agonist) vs. response equation in the GraphPad Prism software (GraphPad Software). […]

MDA-MB-436 cell line = assay: Inhibition of cell proliferation by ADC products in vitro; type: cell-based; conditions: 6 days, read-out: IC50, nM MDA-MB-436 cell line (Nectin-4−)
Experimental: HCC1954 cells (HER2 positive, purchased from the cell bank of ATCC, Cat. No. CRL-2338) were normally cultured in a RPMI-1640 medium (Gibco, Cat. No. A1049101) with 1000 fetal bovine serum (FBS) (Gibco, Cat. No. A5669701) in a cell culture incubator at 37° C. and 500 CO2; and MDA-MB-468 cells (HER2 negative, purchased from Cell Resource Center, Shanghai Academy of Biological Sciences, Chinese Academy of Sciences) were both normally cultured in a DMEM medium with 10% fetal bovine serum (FBS) in a cell culture incubator at 37° C. and 5% CO2. The cells were added to a 96-well plate at 1.0×10^3 cells/well and 100 μL/well and incubated in a cell culture incubator at 37° C. and 500 CO2. […]
The OD450 optical density values were read on an EnVision™ multi-function microplate reader (PerkinElmer), and the inhibition rates (%) of the test antibody-conjugated drugs were calculated. […]
After 6 days of treatment with the antibody-conjugated drugs to be tested, 50 μL/well of CellTiter-Glo® reagent (Promega, Cat. No. G9243) was added to the wells, mixed thoroughly with shaking and incubated for 10 minutes. Chemiluminescence values were read on an EnVision™ multi-function microplate reader (PerkinElmer). […]

Row | Molecule | EC50 (CEACAM5/6 (H2122 cells)) | IC50 (MDA-MB-436 cell line)
1 | mAb1: "the sequences of the heavy chain and light chain of mAb1 can be found in SEQID: 39 and SEQID: 40" (antibody) heavy: QVQLVQSGAEVKKPGASVKVSCKASGYTFTDYAMHWVRQAPGQRLEWMGLISTYSGDTKYNQNFQGRVTMTVDKSASTAYMELSSLRSEDTAVYYCARGDYSGSRYWFAYWGQGTLVTVSS[human IgG1 constant region not spelt out] light: DIQMTQSPSSLSASVGDRVTITCQASENIYGALNWYQRKPGKSPKLLIYGASNLATGMPSRFSGSGSGTDYTFTISSLQPEDIATYYCQQVLSSPYTFGGGTKLEIKRTVAAPSVFIFPPSDEQLKSGTASVVCLLNNFYPREAKVQWKVDNALQSGNSQESVTEQDSKDSTYSLSSTLTLSKADYEKHKVYACEVTHQGLSSPVTKSFNRGEC | 7.94 nM | –
2 | ADC-34 (conjugate) heavy: EVQLVESGGGLVQPGGSLRLSCAASGFTFSSYNMNWVRQAPGKGLEWVSYISSSSSTIYYADSVKGRFTISRDNAKNSLSLQMNSLRDEDTAVYYCARAYYYGMDVWGQGTTVTVSSASTKGPSVFPLAPSSKSTSGGTAALGCLVKDYFPEPVTVSWNSGALTSGVHTFPAVLQSSGLYSLSSVVTVPSSSLGTQTYICNVNHKPSNTKVDKRV[human IgG1 Fc not spelt out] light: DIQMTQSPSSVSASVGDRVTITCRASQGISGWLAWYQQKPGKAPKFLIYAASTLQSGVPSRFSGSGSGTDFTLTISSLQPEDFATYYCQQANSFPPTFGGGTKVEIKRTVAAPSVFIFPPSDEQLKSGTASVVCLLNNFYPREAKVQWKVDNALQSGNSQESVTEQDSKDSTYSLSSTLTLSKADYEKHKVYACEVTHQGLSSPVTKSFNRGEC | – | 15.3 nM
